# Laboratory results as given in ChEMBL document CHEMBL1157539, “Thousands of chemical starting points for antimalarial lead identification” (Nature, 2010).
# Over roughly 13,000 compounds, “IFI” has its median near 4; the highest 2% begin near 17. This is one part of the list.
# Experiment: GSK_TCMDC: Inhibition Frequency Index (IFI). The number of non-kinase HTS assays where a compound showed > 50 % inhibition, expressed as a percentage of the number of such assays in which the compound was tested (-0 is zero)
# Assay type: functional
row,Compound,IFI [%]
1,Cc1cccc2nc(-c3ccc(-c4cccc(CN5CCC(C(N)=O)CC5)c4)s3)[nH]c12,3.77
2,O=C(/C=C/c1ccc(Cl)c(Cl)c1)NCCCCCN1CCN(C(=O)Nc2ccc(Cl)c(C(F)(F)F)c2)CC1,4.67
3,Cc1nnsc1C(=O)Nc1cccc(-c2ccc(-c3nc4cccc(C)c4[nH]3)s2)c1,6.31
4,COc1cc(OC)c(NC(=O)C2c3ccccc3C(=O)N(C)C2c2cccs2)cc1Cl (stereo unspecified),0
5,CC(C)Nc1cc(C(=O)N[C@@H](Cc2ccccc2)[C@H](O)CNC(C)(C)c2cccc(C(F)(F)F)c2)cc(N2CCCCS2(=O)=O)c1,6.99
6,Cc1cc(N(C)CCN(C)C)nc(Nc2ccc(Br)cc2)n1,-0
7,Cc1c(-c2ccc3c(c2)C(NCCCN2CCCCC2)CC3)cnc(N)c1C (stereo unspecified),2.26
8,Clc1ccc(OCc2ccccc2)c(Cc2ccc(-c3nc4cnccc4[nH]3)o2)c1,12.2
9,c1cc(CN2CCN(c3ccncc3)CC2)cc(-c2ccc(-c3nc4ccccc4[nH]3)cc2)c1,13.9
10,CS(=O)(=O)Nc1cccc(-c2cnc3[nH]cc(-c4ccc(C(=O)O)c(F)c4)c3c2)c1,4.63
11,O=C(Nc1ccc(S(=O)(=O)N2CCCCC2)cc1)c1cc(-c2ccccc2O)n[nH]1,5.71
12,CS(=O)(=O)CCNc1nccc(N2CCc3ncnc(Nc4ccc(OCc5cccc(F)c5)c(Cl)c4)c3C2)n1,8.33
13,CCCOc1cc(OCCC)cc(-c2cc(=O)c3ccccc3[nH]2)c1,5.88
14,CC(=O)N1N=C(c2ccc(F)cc2)Sc2c1nc(-c1ccccc1)n2C(C)=O,4.29
15,COC(=O)c1cccc(CNCc2cccc(-c3cccc(-c4nc5cc(C(F)(F)F)ccc5[nH]4)c3)c2)c1,6.73
16,CCCCCc1cc(O)c2c(c1)OC(C)(C)C=C2C1=CCN(Cc2ccsc2)CC1,5.59
17,CC1CCN(C(=O)CSc2nc(-c3ccc(C(C)C)cc3)no2)CC1,9.76
18,CC[C@@H]([C@@H](CC(C)C)C(=O)N[C@@H](CCCCNC(=O)OCc1ccccc1)C(=O)Nc1ccccn1)N(O)C=O,2.9
19,C#CCN(Cc1cc2c(=O)[nH]c(N)nc2cc1C)c1ccc(C(=O)N[C@@H](CCC(=O)O)C(=O)O)cc1,0.75
20,CC(NC(=O)NC1CCC(CCN2CCCc3ccccc32)CC1)c1cccc2ccccc12 (stereo unspecified),5.88
21,O=S(=O)(Nc1ccc2nccc(N3CCNCC3)c2c1)c1ccc2oc3ccccc3c2c1,5.22
22,CCOc1ccc(-c2noc(-c3c[nH]c4ccccc4c3=O)n2)cc1,1.49
23,Clc1ccc(-c2csc3ncnc(Cl)c23)cc1,3.38

row,Compound,IFI [%]
1,COc1cccc(C(=O)Nc2ccc(Nc3nc(C)cc(N(C)C)n3)cc2)c1OC,7.14
2,CC(C)c1ccc(CN2CCC(CNC(=O)c3cc(-c4cccc(C(F)(F)F)c4)cs3)C2)cc1 (stereo unspecified),12.2
3,O=C(/C=C/c1ccc(Cl)c(Cl)c1)N1CCC(CN2CCC(c3nc4ccccc4n3CCCO)CC2)CC1,0.75
4,Cc1cc(N)c2cc(NC(=O)/C=C/c3ccccc3)ccc2n1,3.45
5,O=C(/C=C/c1ccccc1Cl)Nc1ccc(Br)c(OCCN2CCC(O)(c3ccccc3)CC2)c1,7.64
6,O=c1cc(NCCCNC(c2ccccc2)c2ccc(Cl)c(Cl)c2)[nH]c2ccccc12 (stereo unspecified),5
7,OC(CNCCCc1ccccc1)c1cc(OCc2ccccc2)cc(OCc2ccccc2)c1 (stereo unspecified),5.22
8,CCOc1ccccc1N1CCN(CCCNC(=O)/C(=C/C=C/c2cc3cc(Cl)c(Cl)cc3[nH]2)OC)CC1,10.8
9,c1ccc2c(c1)ncn2-c1ccnc(Nc2ccncc2)n1,0.79
10,O=S(=O)(c1ccccc1OC(F)(F)F)C1CC2CCC(C1)N2S(=O)(=O)c1cccc(C(F)(F)F)c1 (stereo unspecified),3.33
11,CC(C)(C)CC(C)(C)c1ccc(O)c(CNC2CCCCC2)c1,8.96
12,Nc1cccc(CNCc2cccc(-c3cccc(-c4nc5ccccc5[nH]4)c3)c2)c1,8.49
13,COc1ccc2nccc([C@@H](O)CN3CCC(NC(=O)/C=C/c4cccc(NC(C)=O)c4)CC3)c2c1,1.48
14,CCN(CC)CCn1c2ccccc2c2ccc(C(=O)Nc3ccc4sc(C)nc4c3)cc21,14.4
15,NC1CCN(Cc2ccc(-c3ccc(-c4nc5cc(F)ccc5[nH]4)cc3)cc2)C1 (stereo unspecified),7.04
16,Cc1ccccc1OCC(=O)Nc1ccc(-c2nc3cc4ccccc4cc3[nH]2)cc1,0.73
17,CN1CCC(NCc2cccc(-c3ccc(S(=O)(=O)NCCN4CCCC4)c(F)c3)c2)CC1,-0
18,CCCn1c(Sc2ccc(C#N)c([N+](=O)[O-])c2)nnc1-c1ccc(OC)cc1,4.23
19,COc1ccc2ccc(OC)c(CNCCCCCCNCc3c(OC)ccc4ccc(OC)cc34)c2c1,12
20,O=C1Nc2ccc3ncccc3c2/C1=C/Nc1ccc(Cn2ccnc2)cc1,11.9
21,Nc1c2ccccc2nc2cc([N+](=O)[O-])ccc12,6.92
22,COc1ccccc1C(=O)Nc1cccc(N2CCC(NCc3ccc(-n4cccn4)cc3)CC2)c1,10.5
23,O=C1C2C(c3ccc(Cl)c(Cl)c3)N3CC(OCc4ccccc4)CC3(C(=O)O)C2C(=O)N1c1ccc(Br)cc1 (stereo unspecified),0
